# Results: paper PMC4336329 (PLoS ONE, 2015)
# Screen size: about 310,000 compounds; about 2,200 (0.71%) showed an effect of 50% or more. The effect is printed as a negative number. This is one part of the list.
# Biological target: human ether-à-go-go-related gene (hERG) potassium channel (human, UniProt Q12809)
# Experiment: primary screen, population patch clamp on CHO cells stably expressing hERG
# human ether-à-go-go-related gene (hERG) potassium channel, sequence (Q12809 whole entry, looked up): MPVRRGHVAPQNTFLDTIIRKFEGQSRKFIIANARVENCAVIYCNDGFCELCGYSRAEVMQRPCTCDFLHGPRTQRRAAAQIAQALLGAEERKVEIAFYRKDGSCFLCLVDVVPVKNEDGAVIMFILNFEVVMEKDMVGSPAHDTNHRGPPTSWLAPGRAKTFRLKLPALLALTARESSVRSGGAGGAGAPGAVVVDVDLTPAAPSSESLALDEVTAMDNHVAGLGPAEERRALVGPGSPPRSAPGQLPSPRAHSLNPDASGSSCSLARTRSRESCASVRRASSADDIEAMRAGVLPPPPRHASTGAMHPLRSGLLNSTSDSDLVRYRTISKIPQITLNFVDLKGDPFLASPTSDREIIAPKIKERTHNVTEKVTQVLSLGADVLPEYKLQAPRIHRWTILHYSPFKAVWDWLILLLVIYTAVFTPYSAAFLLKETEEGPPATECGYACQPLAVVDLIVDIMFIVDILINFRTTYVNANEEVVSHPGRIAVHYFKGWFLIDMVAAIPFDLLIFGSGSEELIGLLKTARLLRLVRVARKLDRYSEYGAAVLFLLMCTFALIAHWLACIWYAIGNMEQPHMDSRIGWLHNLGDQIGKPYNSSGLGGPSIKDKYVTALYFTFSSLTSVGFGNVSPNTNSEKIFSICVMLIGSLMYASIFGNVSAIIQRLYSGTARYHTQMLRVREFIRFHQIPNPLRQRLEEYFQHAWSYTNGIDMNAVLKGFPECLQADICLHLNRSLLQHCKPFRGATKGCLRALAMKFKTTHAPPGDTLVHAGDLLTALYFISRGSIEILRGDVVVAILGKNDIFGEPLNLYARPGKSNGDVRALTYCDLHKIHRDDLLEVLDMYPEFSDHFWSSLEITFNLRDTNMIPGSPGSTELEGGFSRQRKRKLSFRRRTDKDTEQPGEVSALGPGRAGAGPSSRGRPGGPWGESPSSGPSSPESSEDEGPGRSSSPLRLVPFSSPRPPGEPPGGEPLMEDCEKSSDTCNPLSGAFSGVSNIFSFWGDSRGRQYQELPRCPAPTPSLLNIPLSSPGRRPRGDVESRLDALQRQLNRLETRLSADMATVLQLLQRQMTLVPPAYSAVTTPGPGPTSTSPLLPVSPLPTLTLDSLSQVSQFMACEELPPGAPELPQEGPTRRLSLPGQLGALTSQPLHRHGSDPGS
row,SMILES,"hERG current change (%, negative = inhibition) at 1uM [%]"
1,Cc1ccc(NC2CCCN(C(=O)c3cc4ncccn4n3)C2)cc1C (stereo not shown),14.2
2,C/C(=N\N1CCN(c2ccccc2)CC1)c1ccncc1,7.82
3,O=C(O)CC1(CC(=O)Nc2ccccc2Br)CCCC1,4.18
4,Cc1nc(S(=O)(=O)Cc2ccc(Cl)cc2)nc2c1CCC2,14
5,CCn1ncc(C2C(C(=O)Nc3ccc(C)cn3)=C(C)NC3=C2C(=O)CCC3)c1C (stereo not shown),12.7
6,CC1(C)CC(=O)C2=C(C1)NC(SCC(=O)Nc1ccccc1)=C(C#N)C2c1ccco1 (stereo not shown),-0.909
7,O=C(N/N=C/c1ccco1)c1ccc(OCc2ccccc2)cc1,9.88
8,O=C(COc1ccc(F)cc1)Nc1ccc2c(c1)OCCO2,14.6
9,Cc1ccc(C(=O)Nc2cc(Cl)ccc2N2CCCCC2)s1,14.3
10,CC1=C(C(=O)OCc2ccccc2)C(c2ccc(Cl)cc2Cl)NC(=O)N1CCCCCC(=O)O (stereo not shown),6.91
11,COc1ccc(Cc2c(N)nc(N)nc2N)cc1,2.68
12,CC(C)NC(=O)CSc1nnc(-c2ccncc2)n1-c1ccccc1,15.9
13,COc1cccc(N/C(SCc2cccc([N+](=O)[O-])c2)=C(/C#N)C(N)=O)c1,7.19
14,CC(C)(C)NC(NC(=O)Cc1ccccc1)C(Cl)(Cl)Cl (stereo not shown),5.27
15,COc1cc(OC)c(OC)cc1C=NCC1(c2ccccc2)CCCC1.Cl,11.6
16,[N-]=[N+]=NCCN1CCN(Cc2ccccc2)CCC1=O,-0.414
17,O=C(CCc1ccc(S(=O)(=O)N2CCOCC2)cc1)Nc1ccc2c(c1)OCCO2,13.7
18,CC(C)Nc1nc(NC(C)C)nc(N(C#N)CCOc2ccc(Cl)cc2Cl)n1,15.5
19,CC1CCN(C(=O)CNC(=O)Cn2ccc3ccccc3c2=O)CC1,11.5
20,OC(Cn1cncn1)c1ccc(Cl)cc1Cl (stereo not shown),17.2
21,O=C(O)c1ccc(N2CC3CC(C2)c2cccc(=O)n2C3)c(NC(=S)Nc2ccc(Br)cc2)c1 (stereo not shown),24.2
22,O=C(O)c1cnn2c(C(F)F)cc(C(F)F)nc12,3.37

row,SMILES,"hERG current change (%, negative = inhibition) at 1uM [%]"
1,O=Cc1ccc(-c2ccc(C(=O)O)cc2)o1,-2.38
2,CCCCOc1ccc(C(=O)NCC(=O)NC2CCN(Cc3ccccc3)CC2)cc1,12.2
3,Cc1c(NC2=CC(=O)CC(C)(C)C2)ccc([N+](=O)[O-])c1C,-5.15
4,O=C(COC(=O)Cc1ccccc1F)NNC(=O)c1ccc([N+](=O)[O-])cc1,15.3
5,Cc1ccc(NC(=O)CN2C(=O)S/C(=C\c3cc(Cl)c(OCC(=O)O)c(Cl)c3)C2=O)cc1,14.5
6,COC(=O)c1ccc(OC)c(CSc2nnc(COc3ccc(OC)cc3)o2)c1,-6.33
7,O=C(Cn1cnc2ccccc2c1=O)N1CCN(c2ccc(F)cc2)CC1,13.1
8,CCC(C(=O)Nc1nc(C)cs1)c1ccccc1 (stereo not shown),13.5
9,COc1ccc(CNC(=O)C2CCC(CNC(=O)[C@@H]3Cc4ccccc4CN3)CC2)cc1 (stereo partly shown),7.35
10,Nn1c(=S)[nH]nc(Cc2ccc(O)cc2)c1=O,-16.3
11,Cc1ccccc1C(=O)N1CCN(c2ccc([N+](=O)[O-])c(N3CCOCC3)c2)CC1,2.94
12,Cc1ccc(CNC(=O)Cn2cccc2C(=O)c2ccccc2)cc1,14.5
13,Cc1ccc(-c2nc3c(c(SCC(=O)N4CCOCC4)n2)COC(C)(C)C3)cc1,7.54
14,Cc1ccc(NC(=O)CSc2nnc(C3CC3)n2CC2CCCO2)c(C)c1 (stereo not shown),0.463
15,CC1=CCC2C(=O)N(c3ccc(C(=O)Nc4ccccc4Cl)cc3)C(=O)C2C1 (stereo not shown),7.86
16,CS(=O)(=O)Nn1cnc2ccccc2c1=O,11.5
17,CCOC(=O)c1c(NC(=O)CN2CCCCC2)sc2c1CCCC2O (stereo not shown),9.65
18,Cc1ccc(N=C2NC(=O)/C(=C/c3cccn3C)S2)c(C)c1,11.4
19,O=C(O)[C@@H]1Cc2c([nH]c3ccccc23)C2CCC(=O)N21 (stereo partly shown),17.1
20,CCn1cc(Br)c(C(=O)Nc2cccc(Cl)c2)n1,6.29
21,Cl.N[C@@H](CO)c1nnc([C@H](Cc2ccc(O)cc2)NC(=O)C2CCNCC2)o1,6.02
